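How tested: cells in 96-well plates exposed to compound for 48 hours at five concentrations. GI50 is the concentration that inhibits growth by half. At the TGI there is no net growth.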
Each molecule was assayed on NCI-H322M lung (assay: inhibition of tumour cell growth, NCI panel, 48 h).

C(=N\OCCc1ccccc1)/c1cccnc1 was tested. Which TGI did it give?
The TGI was greater than 100 µM.

For Cc1sc(C)c2c1C(=O)CC2N (configuration not stated), which TGI is on record?
The TGI was greater than 100 µM.

How did the TGI turn out when C#CC1(O)c2ccccc2C(=O)c2ccccc21 was run?
Its TGI is greater than 100 µM.

With COC(=O)[C@@H](Cc1ccccc1)N1O[C@]12CCCC[C@@H]2NC(=O)OC(C)(C)C (some centres not stated) as the molecule, how does the TGI read?
Its TGI is greater than 100 µM.

How did the TGI turn out when CCN(CC)CCCNc1nc(=O)[nH]c(C)c1C(=O)Nc1ccc2c(c1)c1ccccc1n2CC was run?
Its TGI is greater than 100 µM.

How did the GI50 turn out when CCCNC(=O)c1ccc(Cl)cc1Cl was run?
The GI50 was greater than 100 µM.

What about the TGI of the same molecule?
Its TGI is greater than 100 µM.

— PubChem BioAssay (NCI)
